# Where a name gives a salt, the structure may show the parent alone.
# Target: T1, human NTCP (Homo sapiens, UniProt Q14973)
# T1 sequence (Q14973 1-349): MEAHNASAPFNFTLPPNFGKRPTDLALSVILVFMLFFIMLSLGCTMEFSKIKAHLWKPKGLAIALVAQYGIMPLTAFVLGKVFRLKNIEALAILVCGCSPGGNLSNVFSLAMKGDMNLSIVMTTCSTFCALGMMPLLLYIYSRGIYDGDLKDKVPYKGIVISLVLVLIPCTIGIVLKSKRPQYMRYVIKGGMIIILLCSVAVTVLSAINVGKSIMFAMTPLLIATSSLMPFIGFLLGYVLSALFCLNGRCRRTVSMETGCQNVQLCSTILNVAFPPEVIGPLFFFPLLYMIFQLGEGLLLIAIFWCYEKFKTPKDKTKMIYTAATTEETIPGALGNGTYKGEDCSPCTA
# Assay: Screening taurocholate uptake assay (96-well, [14C]taurocholate, 10 µM drug)
# Conditions: not given
row,Compound,%NTCP activity
1,CCCC[N+]1(C)[C@@H]2C[C@@H](OC(=O)[C@H](CO)c3ccccc3)C[C@H]1[C@@H]1O[C@@H]12.[Br-] (stereo partly drawn) [Butylscopolammonium (n-) bromide],85.5872%

# Same assay, conditions: 10 min, read-out: %NTCP activity
row,Compound,remaining activity at 10 µM
1,CC1(C)S[C@@H]2[C@H](NC(=O)Cc3ccccc3)C(=O)N2[C@H]1C(=O)O [Benzylpenicillin sodium],105%
2,CCN(CCCCOC(=O)c1ccc(OC)c(OC)c1)C(C)Cc1ccc(OC)cc1 (stereo not drawn) [Mebeverine hydrochloride],120%
3,CCN(CC)CC#CCOC(=O)C(O)(c1ccccc1)C1CCCCC1 (stereo not drawn) [Oxybutynin chloride],26.8%
4,Cc1scc2c1N(C(=O)CN1CCN(C)CC1)c1ccccc1NC2=O [Telenzepine dihydrochloride],103%
5,O=C1NCC2(CCN(CCc3ccccc3)CC2)O1 [Fenspiride hydrochloride],132%
6,C[C@]1(Cn2ccnn2)[C@H](C(=O)O)N2C(=O)C[C@H]2S1(=O)=O [Tazobactam],87.9%
7,c1ccc2[nH]c(-c3cscn3)nc2c1 [Tiabendazole],61.9%
8,COCCCC/C(=N\OCCN)c1ccc(C(F)(F)F)cc1 [Fluvoxamine maleate],96%
9,CC[C@@H](CO)NC(=O)[C@@H]1C=C2c3cccc4[nH]cc(c34)C[C@H]2N(C)C1 [Methylergometrine maleate],82.3%
10,CC(N)CCCC(C)(C)O (stereo not drawn) [Heptaminol hydrochloride],105%
11,NC1CCN(c2c(F)cc3c(=O)c(C(=O)O)cn(C4CC4)c3c2Cl)C1 (stereo not drawn) [Clinafloxacin],102%
12,O=c1[nH]c(=O)n(C2CCCO2)cc1F (stereo not drawn) [Tegafur],78%
13,O=C(O)CCC(=O)c1ccc(-c2ccccc2)cc1 [Fenbufen],122%
14,CC(=O)S[C@@H]1CC2=CC(=O)CC[C@]2(C)[C@H]2CC[C@@]3(C)[C@@H](CC[C@@]34CCC(=O)O4)[C@H]12 [Spironolactone],87.6%
15,Oc1c(Cl)cc(Cl)c(Cl)c1Cc1c(O)c(Cl)cc(Cl)c1Cl [Hexachlorophene],49.8%
16,CNCC(O)c1ccc(OC(=O)C(C)(C)C)c(OC(=O)C(C)(C)C)c1 (stereo not drawn) [Dipivefrin hydrochloride],118%
17,O=C(CCCN1CCC2(CC1)C(=O)NCN2c1ccccc1)c1ccc(F)cc1 [Spiperone],24.8%
18,C[C@@H](O)[C@H]1C(=O)N2C(C(=O)O)=C(S[C@@H]3CN[C@H](C(=O)N(C)C)C3)[C@H](C)[C@H]12 [Meropenem],109%
19,C[N+]1(C)CCC(OC(=O)C(O)(c2ccccc2)C2CCCC2)C1 (stereo not drawn) [Glycopyrrolate],95.3%
20,NC(CO)C(=O)NNCc1ccc(O)c(O)c1O (stereo not drawn) [Benserazide hydrochloride],54.3%
21,COc1ccc(Cc2nccc3cc(OC)c(OC)cc23)cc1OC [Papaverine hydrochloride],108%
22,C[C@@H]1CN([C@H]2CC[C@](C#N)(c3ccc(F)cc3)CC2)CC[C@]1(C(=O)O)c1ccccc1 [Levocabastine hydrochloride],71.1%
23,C=CC(N)CCC(=O)O (stereo not drawn) [Vigabatrin],71.2%
24,CO/N=C(\C(=O)N[C@@H]1C(=O)N2C(C(=O)O)=C(COC(N)=O)CS[C@H]12)c1ccco1 [Cefuroxime sodium salt],133%
25,Cc1cc(NC(=O)C2=C(O)c3ccccc3S(=O)(=O)N2C)no1 [Isoxicam],157%
26,C1N2CN3CN1CN(C2)C3 [Methenamine],127%

# Target: T1, human NTCP
# Assay: Screening fluorescent competitive Myrcludex B-FITC binding assay (96-well, 10 µM drug)
# Conditions: 0.5 h, read-out: %NTCP binding
row,Compound,remaining activity at 10 µM
1,CC1(C)S[C@@H]2[C@H](NC(=O)Cc3ccccc3)C(=O)N2[C@H]1C(=O)O [Benzylpenicillin sodium],72.1%
2,CCN(CCCCOC(=O)c1ccc(OC)c(OC)c1)C(C)Cc1ccc(OC)cc1 (stereo not drawn) [Mebeverine hydrochloride],57.9%
3,CCN(CC)CC#CCOC(=O)C(O)(c1ccccc1)C1CCCCC1 (stereo not drawn) [Oxybutynin chloride],74.4%
4,Cc1scc2c1N(C(=O)CN1CCN(C)CC1)c1ccccc1NC2=O [Telenzepine dihydrochloride],82.2%
5,O=C1NCC2(CCN(CCc3ccccc3)CC2)O1 [Fenspiride hydrochloride],72.7%
6,C[C@]1(Cn2ccnn2)[C@H](C(=O)O)N2C(=O)C[C@H]2S1(=O)=O [Tazobactam],78.3%
7,c1ccc2[nH]c(-c3cscn3)nc2c1 [Tiabendazole],81.2%
8,COCCCC/C(=N\OCCN)c1ccc(C(F)(F)F)cc1 [Fluvoxamine maleate],87.7%
9,CC(N)CCCC(C)(C)O (stereo not drawn) [Heptaminol hydrochloride],118%
10,NC1CCN(c2c(F)cc3c(=O)c(C(=O)O)cn(C4CC4)c3c2Cl)C1 (stereo not drawn) [Clinafloxacin],85%
11,O=c1[nH]c(=O)n(C2CCCO2)cc1F (stereo not drawn) [Tegafur],71.6%
12,O=C(O)CCC(=O)c1ccc(-c2ccccc2)cc1 [Fenbufen],66.5%
13,CC(=O)S[C@@H]1CC2=CC(=O)CC[C@]2(C)[C@H]2CC[C@@]3(C)[C@@H](CC[C@@]34CCC(=O)O4)[C@H]12 [Spironolactone],88.4%
14,Oc1c(Cl)cc(Cl)c(Cl)c1Cc1c(O)c(Cl)cc(Cl)c1Cl [Hexachlorophene],99.4%
15,CNCC(O)c1ccc(OC(=O)C(C)(C)C)c(OC(=O)C(C)(C)C)c1 (stereo not drawn) [Dipivefrin hydrochloride],83.3%
16,O=C(CCCN1CCC2(CC1)C(=O)NCN2c1ccccc1)c1ccc(F)cc1 [Spiperone],73.9%
17,C[C@@H](O)[C@H]1C(=O)N2C(C(=O)O)=C(S[C@@H]3CN[C@H](C(=O)N(C)C)C3)[C@H](C)[C@H]12 [Meropenem],95.6%
18,C[N+]1(C)CCC(OC(=O)C(O)(c2ccccc2)C2CCCC2)C1 (stereo not drawn) [Glycopyrrolate],108%
19,NC(CO)C(=O)NNCc1ccc(O)c(O)c1O (stereo not drawn) [Benserazide hydrochloride],79%
20,C=CC(N)CCC(=O)O (stereo not drawn) [Vigabatrin],79.2%
21,CO/N=C(\C(=O)N[C@@H]1C(=O)N2C(C(=O)O)=C(COC(N)=O)CS[C@H]12)c1ccco1 [Cefuroxime sodium salt],70.6%
22,Cc1cc(NC(=O)C2=C(O)c3ccccc3S(=O)(=O)N2C)no1 [Isoxicam],113%
23,C1N2CN3CN1CN(C2)C3 [Methenamine],62.3%

# Same assay, conditions: 0.5 h, read-out: %NTCP binding, Prestwick library screen, 10 µM drug, Myrcludex B-FITC binding
row,Compound,remaining activity at 10 µM
1,CC[C@@H](CO)NC(=O)[C@@H]1C=C2c3cccc4[nH]cc(c34)C[C@H]2N(C)C1 [Methylergometrine maleate],64.3%

# Same assay, conditions: 0.5 h, read-out: %NTCP binding, Prestwick library screen, Myrcludex B-FITC binding, 10 µM drug
row,Compound,remaining activity at 10 µM
1,COc1ccc(Cc2nccc3cc(OC)c(OC)cc23)cc1OC [Papaverine hydrochloride],83.8%
2,C[C@@H]1CN([C@H]2CC[C@](C#N)(c3ccc(F)cc3)CC2)CC[C@]1(C(=O)O)c1ccccc1 [Levocabastine hydrochloride],81.3%

# Same assay, conditions: screen, 10 µM drug, Myrcludex B-FITC binding
row,Compound,%NTCP binding
1,CCCC[N+]1(C)[C@@H]2C[C@@H](OC(=O)[C@H](CO)c3ccccc3)C[C@H]1[C@@H]1O[C@@H]12.[Br-] (stereo partly drawn) [Butylscopolammonium (n-) bromide],77.9454%

# Source: article PMC5681660, “Reduced hepatitis B and D viral entry using clinically applied drugs as novel inhibitors of the bile acid transporter NTCP” (Scientific Reports, 2017)
